The results in this text go back to the supplement of paper PMC4723716.

Structures are written as SMILES. ± gives the uncertainty stated by the source. The full ranking holds about 9,900 compounds; the median of “viability index relative to DMSO control” is about 1, and the lowest 2% start at about 0.85. The list shows a part of the results.

This assay deals with Plasmodium falciparum NF54 stage V gametocytes. The experiment in a line: viability index relative to DMSO control (fraction); higher = less gametocyte killing. The conditions noted are these: 2.5 µM, incubation time: 72 h. The procedure, abridged: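 P. falciparum NF54 stage V gametocytes in serum-free screening medium (0.75% gametocytemia, 1.25% hematocrit, 10 µl) were incubated with compound at 2.5 µM in 1,536-well plates for 72 hr at 37°C under low oxygen. Then 3 µl of 2.5 µM MitoTracker Red CMXRos plus 0.13% saponin was added for one to two hours. One field per well was imaged, 20–70 µm2 red particles were counted, and the viability index was the count divided by the plate mean of DMSO wells.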

[1] abbreviates: library set: Broad Institute DOS.

Regarding `CCc1nc(N2[C@H](C#N)[C@H](c3ccccc3-c3ccccc3C)[C@H]2CO)sc1C`, the viability index under setting [1] was 1.16 ± 0.18.

Consider `C[C@@H]1CN([C@@H](C)CO)C(=O)c2cc(NC(=O)Nc3ccc(C(F)(F)F)cc3)ccc2O[C@@H](C)CCCCO[C@H]1CN(C)S(=O)(=O)c1ccc(Cl)cc1`, for which, under setting [1], the viability index was determined as 1.09 ± 0.26. For the compound `CN(C[C@H]1N[C@@H](CO)[C@@H]1c1ccc(C2=CCCC2)cc1)C(=O)c1cccc(F)c1`, the viability index under setting [1] was 0.946 ± 0.04. The same measure, in the same setting: the value for `CCNC(=O)c1cc2c(c(-c3cccc(-c4cccnc4)c3)n1)[C@@H](CCO)N(S(C)(=O)=O)C2` was 1.04 ± 0.022.

As for `CO[C@H]1CN(C)C(=O)c2ccc(NS(=O)(=O)c3ccc(C)cc3)cc2OC[C@@H](C)N(C)C[C@@H]1C`, under setting [1], the viability index was 1.1 ± 0.075. Under setting [1], `C[C@@H]1CN([C@H](C)CO)C(=O)c2cccc(NC(=O)c3nc4ccccc4s3)c2O[C@@H]1CN(C)C(=O)Nc1ccc2c(c1)OCO2` came in with a viability index of 0.917 ± 0.013. On the same count and under the same terms, the value for `CCCN(C)C[C@@H]1Oc2cc(/C=C/c3ccccc3)ccc2S(=O)(=O)N([C@@H](C)CO)C[C@@H]1C` was 0.957 ± 0.068.

As to `Cn1cnc(S(=O)(=O)N[C@H]2CC[C@@H](CC(=O)NCC3CCCCC3)O[C@@H]2CO)c1`, under setting [1], the viability index was determined as 1.03 ± 0.058. Same read-out and setting: the value for `C/C=C/c1ccc2c(c1)[C@@H]1[C@@H](CCN1C(=O)C1CCCC1)[C@H](CO)N2` was 1.06 ± 0.045; that for `CO[C@H]1CN(C)C(=O)c2cc(NC(=O)c3ccc(Oc4ccccc4)cc3)ccc2OC[C@H](C)NC[C@@H]1C` was 1.02 ± 0.015.

As for `O=C(Cc1ccccc1)N1CC(=O)N2[C@H](C1)[C@@H](c1ccc(-c3ccc(F)cc3)cc1)[C@@H]2CO`, the viability index under setting [1] was found to be 1.02 ± 0.05. The same measure, in the same setting: the result for `COC(=O)c1ccc(CN2CC(=O)N3[C@H](CO)[C@@H](c4ccc(-c5cccnc5)cc4)[C@H]3C2)cc1` reads 0.986 ± 0.01. On the same count and under the same terms, the result for `COc1ccc(NC(=O)N(C)C[C@H]2Oc3c(NC(=O)CCCCCC(=O)Nc4ccccc4N)cccc3C(=O)N([C@@H](C)CO)C[C@@H]2C)cc1` reads 0.991 ± 0.081; that for `CCCNC(=O)C[C@H]1CC[C@@H]2[C@H](COC[C@@H](O)CN2Cc2ccncc2)O1`, 1.03 ± 0.025. On to `CO[C@H](CN(C)Cc1ccc2c(c1)OCO2)[C@@H](C)CN(C(=O)c1ccccc1)[C@@H](C)CO`, for which the viability index under setting [1] was found to be 1.01 ± 0.05. `CCCNC(=O)N1C[C@H]2[C@@H](c3ccccc31)[C@H](CO)N2C(=O)CN1CCOCC1`: the viability index under setting [1] was 0.923 ± 0.037. The same measure, in the same setting: the result for `COCC#Cc1ccc([C@H]2[C@@H](C#N)N(C(=O)Cc3ccccc3)[C@@H]2CO)cc1` reads 1 ± 0.026; that for `CN1C(=O)c2cc(NC(=O)c3ccno3)ccc2OC[C@H]2O[C@@H](CC(=O)Nc3ccccc3)CC[C@@H]21`, 1.09 ± 0.019; that for `C[C@H](CO)N1C[C@H](C)[C@H](CN(C)C(=O)Nc2ccc(C(F)(F)F)cc2)Oc2ccc(NS(=O)(=O)c3ccc(Cl)cc3)cc2CC1=O`, 1.009 ± 0.0083. The same measure, in the same setting: the value for `CO[C@@H](C(=O)N(C)C[C@H]1OCc2ccccc2-c2ccccc2C(=O)N([C@H](C)CO)C[C@H]1C)c1ccccc1` was 1.02 ± 0.042. The same measure, in the same setting: the value for `O=C(C[C@H]1C[C@H]2c3cc(NS(=O)(=O)c4ccccc4)ccc3O[C@H]2[C@@H](CO)O1)NCC(F)(F)F` was 1.1 ± 0.012; that for `CN1C(=O)c2cc(NC(=O)NCc3ccccc3)ccc2OC[C@H]2O[C@H](CC(=O)NCC3CCCCC3)CC[C@H]21` was 0.979 ± 0.042. On to `COc1cccc(-c2cccc(-c3nc(C(=O)NCc4ccc(Oc5ccccc5)cc4)cc4c3[C@@H](CCO)N(S(=O)C(C)(C)C)C4)c2)c1` (stereo partly drawn), for which the viability index (library set: Broad Institute Blood Stage) stood at 0.799 ± 0.032.

Under setting [1], `CN1c2ccc(-c3ccccc3)cc2[C@@H]2[C@@H](CCN2C(=O)CC2CC2)[C@@H]1CO` yielded a viability index of 1.03 ± 0.024. Still for that read-out and setting: the value for `C[C@H](NC(=O)C[C@@H]1C=C[C@@H](NS(=O)(=O)c2cccc(F)c2)[C@H](CO)O1)c1ccccc1` was 1.13 ± 0.078. Under setting [1], `CO[C@H]1CC[C@@H]2CCOc3c(C#N)cccc3C(=O)N(C)CCCC(=O)N(C)C[C@H]1O2` gave a viability index of 0.967 ± 0.0056. Same read-out and setting: the result for `C[C@@H]1CN([C@@H](C)CO)C(=O)c2cc(NC(=O)C3CCCCC3)ccc2O[C@@H]1CN(C)Cc1ccc2c(c1)OCO2` reads 0.975 ± 0.098; that for `CCCNC(=O)N1C[C@@]2(C1)CN([C@@H](CO)c1c2c2ccc(OC)cc2n1C)S(C)(=O)=O`, 0.987 ± 0.013. Same read-out and setting: the result for `CCCNC(=O)N1[C@H](C#N)[C@H](c2ccccc2C2=CCCCC2)[C@@H]1CO` reads 0.994 ± 0.071. Same read-out and setting: the result for `C[C@H](CO)N1C[C@H](C)[C@@H](CN(C)Cc2ccc(Cl)c(Cl)c2)OCCCC[C@H](C)Oc2ccc(NC(=O)c3ccncc3)cc2C1=O` reads 1.12 ± 0.054; that for `O=C(c1ccccn1)N1CC[C@@H]2[C@H](CO)Nc3ccc(Br)cc3[C@@H]21`, 1.07 ± 0.053; that for `COc1ccc(S(=O)(=O)N(C)C[C@@H]2OCCCC[C@H](C)Oc3ccc(NC(=O)Cc4ccccc4)cc3C(=O)N([C@@H](C)CO)C[C@@H]2C)cc1`, 1.05 ± 0.1. Under setting [1], `COCC(=O)N1C[C@@]2(C1)CN([C@H](CO)c1[nH]c3cc(OC)ccc3c21)C(=O)Nc1ccccc1F` returned a viability index of 1.03 ± 0.071. On the same count and under the same terms, the value for `C/C=C/c1ccc([C@@H]2[C@H]3CN(CCC(F)(F)F)CCCCN3[C@H]2CO)cc1` was 1.07 ± 0.084; that for `COc1ccc(S(=O)(=O)Nc2ccc3c(c2)C(=O)N([C@@H](C)CO)C[C@@H](C)[C@H](CN(C)S(=O)(=O)c2ccc(Cl)cc2)OCCCC[C@H](C)O3)cc1` was 0.9073 ± 0.0032. The same measure, in the same setting: the result for `CCCNC(=O)N(C)C[C@@H]1Oc2cc(C#C[C@@H](C)O)ccc2S(=O)(=O)N([C@H](C)CO)C[C@@H]1C` reads 1.04 ± 0.021. Same read-out and setting: the result for `COc1ccc2c3c([nH]c2c1)[C@H](CO)N(Cc1ccccc1)C[C@]31CCN(CC1)C(=O)NC(C)C` reads 1.05 ± 0.073; that for `C[C@H]1CN([C@@H](C)CO)C(=O)c2c(c3ccccc3n2C)-c2ccccc2CO[C@H]1CN(C)C(=O)Nc1ccc2c(c1)OCO2`, 1.014 ± 0.0037; that for `O=C(NC[C@H]1N[C@H](CO)[C@H]1c1ccc(-c2ccccc2F)cc1)c1ccccn1`, 1.02 ± 0.07. In the case of `Cc1noc(C)c1NC(=O)N(C)C[C@@H]1OCc2ccccc2-c2c(n(C)c3ccccc23)C(=O)N([C@H](C)CO)C[C@@H]1C`, the viability index under setting [1] worked out at 0.967 ± 0.058. For `COc1ccc(-c2ccc([C@H]3[C@H]4CNC[C@@H]3N4S(=O)(=O)c3cn(C)cn3)cc2)cc1`, the viability index under setting [1] is 1.0563 ± 0.00097. Turning to `COc1ccc(NC(=O)N[C@@H]2CC[C@@H](CCNC(=O)CN3CCOCC3)O[C@H]2CO)cc1`, under setting [1], the viability index amounted to 0.981 ± 0.057. As to `CN(C)CC(=O)N1[C@@H](CO)[C@@H](c2ccccc2)C12CN(CCC(F)(F)F)C2`, the viability index under setting [1] came to 1.03 ± 0.092. Still for that read-out and setting: the result for `CN1C(=O)c2cc(NC(=O)c3cnccn3)ccc2OC[C@H]2O[C@H](CC(=O)NCC3CCCCC3)CC[C@@H]21` reads 0.959 ± 0.028; that for `COc1cccc(S(=O)(=O)N(C)C[C@H]2OCc3ccccc3-c3c(n(C)c4ccccc34)C(=O)N([C@H](C)CO)C[C@@H]2C)c1`, 0.975 ± 0.027. Same read-out and setting: the result for `C/C=C/c1ccc2n(c1=O)C[C@H]1[C@H](CO)[C@@H](C(=O)Nc3ccc(-c4ccccc4)cc3)[C@@H]2N1C(=O)CC.C/C=C\c1ccc2n(c1=O)C[C@H]1[C@H](CO)[C@@H](C(=O)Nc3ccc(-c4ccccc4)cc3)[C@@H]2N1C(=O)CC` reads 1.03 ± 0.1; that for `CC(C)c1cn(CC[C@@H]2CC[C@H](NS(=O)(=O)c3ccc(F)cc3)[C@H](CO)O2)nn1`, 1.1 ± 0.15; that for `CO[C@H]1CN(C)C(=O)c2ccc(NC(=O)c3cc(C)on3)cc2OC[C@@H](C)NC[C@H]1C`, 0.96 ± 0.078. Same read-out and setting: the result for `COc1ccc(C[C@H]2CCn3nncc3COC[C@H](CC(C)C)NC2=O)cc1` reads 1.02 ± 0.054.

The compound `COc1cccc(NC(=O)N2C[C@H](O)COC[C@H]3O[C@H](CC(=O)N(C)C)CC[C@@H]32)c1` gave a viability index under setting [1] of 1.01 ± 0.1.

The compound `Cc1ccccc1-c1ccc([C@@H]2[C@@H](CO)N3C(=O)CN(C(=O)Nc4cccc(F)c4)C[C@H]23)cc1` returned a viability index under setting [1] of 1.034 ± 0.0062. The same measure, in the same setting: the result for `OC[C@@H]1[C@@H](c2ccc(C#CC3(O)CCCC3)cc2)[C@@H]2CN(Cc3cncnc3)CCCCN12` reads 1.12 ± 0.1; that for `C[C@H]1CN([C@@H](C)CO)C(=O)c2cc(NS(=O)(=O)c3cccs3)ccc2O[C@@H]1CN(C)S(=O)(=O)c1ccc(Cl)cc1`, 1.01 ± 0.1; that for `COCC(=O)Nc1ccc2c(c1)[C@@H]1C[C@@H](CC(=O)N[C@@H](C)c3ccccc3)O[C@@H](CO)[C@@H]1O2`, 1.1 ± 0.037. Same read-out and setting: the value for `C[C@@H]1CN([C@H](C)CO)C(=O)c2cc(NC(=O)NC3CCCCC3)ccc2O[C@H]1CN(C)S(C)(=O)=O` was 0.966 ± 0.025.

Under setting [1], `C[C@H](CO)N1C[C@H](C)[C@H](CN(C)Cc2ccncc2)Oc2ccc(NS(=O)(=O)c3ccc(F)cc3)cc2CC1=O` had a viability index of 0.979 ± 0.096.

As for `COc1cccc(-c2ccccc2[C@H]2[C@@H](CO)N(C(=O)Nc3ccc(F)cc3)[C@H]2C#N)c1`, the viability index under setting [1] came out at 1.09 ± 0.09. On the same count and under the same terms, the value for `O=C(Nc1cc(F)ccc1F)N[C@H]1CC[C@@H](CCn2cc(C3CCCCC3)nn2)O[C@@H]1CO` was 1.05 ± 0.021; that for `COCC(=O)Nc1ccc2c(c1)C(=O)N(C)[C@@H]1CC[C@H](CC(=O)NCCCN(C)C)O[C@@H]1CO2` was 1.02 ± 0.041; that for `Cc1noc(C)c1S(=O)(=O)N(C)C[C@@H]1OCc2cn(nn2)CCCC(=O)N([C@@H](C)CO)C[C@H]1C` was 1.03 ± 0.014. Take `COCC(=O)Nc1ccc2c(c1)[C@H]1C[C@H](CC(=O)NCc3ccc4c(c3)OCO4)O[C@H](CO)[C@H]1O2`: the viability index under setting [1] came out at 1.069 ± 0.0036. The same measure, in the same setting: the value for `O=C(Cc1ccncc1)NCC[C@H]1CC[C@@H](NS(=O)(=O)c2ccccc2Cl)[C@@H](CO)O1` was 1.07 ± 0.03; that for `C[C@H](CO)N1C[C@H](C)[C@@H](CN(C)C(=O)Nc2cccc3ccccc23)Oc2ccc(NS(=O)(=O)c3cn(C)cn3)cc2C1=O` was 0.981 ± 0.058; that for `CO[C@H]1CC[C@@H]2CCN(C)C(=O)CCCN(C)C(=O)c3cc(C#N)ccc3OC[C@@H]1O2` was 0.9892 ± 0.0029. Same read-out and setting: the value for `N#C[C@H]1[C@@H](c2ccccc2)[C@H](CO)N1C(=O)CCN1CCCCC1` was 1.05 ± 0.049.

Under setting [1], `CCC(=O)N1C[C@]2(CN(Cc3ccc(F)cc3)C2)c2c([C@@H]1CO)n(C)c1cc(OC)ccc21` showed a viability index of 1.04 ± 0.037.

Regarding `CC(C)NC(=O)N1CC(=O)N2[C@H](CO)[C@@H](c3ccc(/C=C/c4ccccc4)cc3)[C@H]2C1`, the viability index under setting [1] worked out at 1.03 ± 0.043.

As to `O=C(C[C@@H]1C[C@@H]2c3cc(NS(=O)(=O)c4ccccc4)ccc3O[C@@H]2[C@H](CO)O1)N1CCOCC1`, under setting [1], the viability index worked out at 1.025 ± 0.0055.
